{"source": "patent US9234216B2", "about": "“Variant CBH I polypeptides” (BP Corporation North America Inc., priority 2011, dated 2016)", "molecules": {"B1": {"name": "SEQ ID 117, 118: BD29555 CBH I entry site variant: Y31L, T32Y, T77D, F120-VTGSNVG-S128 → F120-VQQGPYSKNVG-S132 (protein)", "chain": "MSALNSFNMYKSALILGSLLATAGAQQIGTLYAETHPSLSWSTCKSGGSCTTNSGAITLDANWRWVHGVNTSTNCYDGNTWNTAICDTDASCAQDCALDGADYSGTYGITTSGNSLRLNFVQQGPYSKNVGSRTYLMADNTHYQIFDLLNQEFTFTVDVSHLPCGLNGALYFVTMDADGGVSKYPNNKAGAQYGVGYCDSQCPRDLKFIAGQANVEGWTPSSNNANTGLGNHGACCAELDIWEANSISEALTPHPCDTPGLSVCTTDACGGTYSSDRYAGTCDPDGCDFNPYRLGVTDFYGSGKTVDTTKPITVVTQFVTDDGTSTGTLSEIRRYYVQNGVVIPQPSSKISGVSGNVINSDFCDAEISTFGETASFSKHGGLAKMGAGMEAGMVLVMSLWDDYSVNMLWLDSTYPTNATGTPGAARGSCPTTSGDPKTVESQSGSSYVTFSDIRVGPFNSTFSGGSSTGGSSTTTASGTTTTKASSTSTSSTSTGTGVAAHWGQCGGQGWTGPTTCASGTTCTVVNPYYSQCL"}, "B2": {"name": "SEQ ID 119, 120: Loop GeneReassembly entry of Table 6; printed amino acid sequence equals wild type BD29555 (protein)", "chain": "MSALNSFNMYKSALILGSLLATAGAQQIGTYTAETHPSLSWSTCKSGGSCTTNSGAITLDANWRWVHGVNTSTNCYTGNTWNTAICDTDASCAQDCALDGADYSGTYGITTSGNSLRLNFVTGSNVGSRTYLMADNTHYQIFDLLNQEFTFTVDVSHLPCGLNGALYFVTMDADGGVSKYPNNKAGAQYGVGYCDSQCPRDLKFIAGQANVEGWTPSSNNANTGLGNHGACCAELDIWEANSISEALTPHPCDTPGLSVCTTDACGGTYSSDRYAGTCDPDGCDFNPYRLGVTDFYGSGKTVDTTKPITVVTQFVTDDGTSTGTLSEIRRYYVQNGVVIPQPSSKISGVSGNVINSDFCDAEISTFGETASFSKHGGLAKMGAGMEAGMVLVMSLWDDYSVNMLWLDSTYPTNATGTPGAARGSCPTTSGDPKTVESQSGSSYVTFSDIRVGPFNSTFSGGSSTGGSSTTTASGTTTTKASSTSTSSTSTGTGVAAHWGQCGGQGWTGPTTCASGTTCTVVNPYYSQCL"}, "B3": {"name": "SEQ ID 121, 122: BD29555 CBH I variant: P159G, S217K, N222H, L225Y, K345D, N352V, V451W (protein)", "chain": "MSALNSFNMYKSALILGSLLATAGAQQIGTYTAETHPSLSWSTCKSGGSCTTNSGAITLDANWRWVHGVNTSTNCYTGNTWNTAICDTDASCAQDCALDGADYSGTYGITTSGNSLRLNFVTGSNVGSRTYLMADNTHYQIFDLLNQEFTFTVDVSHLGCGLNGALYFVTMDADGGVSKYPNNKAGAQYGVGYCDSQCPRDLKFIAGQANVEGWTPKSNNAHTGYGNHGACCAELDIWEANSISEALTPHPCDTPGLSVCTTDACGGTYSSDRYAGTCDPDGCDFNPYRLGVTDFYGSGKTVDTTKPITVVTQFVTDDGTSTGTLSEIRRYYVQNGVVIPQPSSDISGVSGVVINSDFCDAEISTFGETASFSKHGGLAKMGAGMEAGMVLVMSLWDDYSVNMLWLDSTYPTNATGTPGAARGSCPTTSGDPKTVESQSGSSYVTFSDIRWGPFNSTFSGGSSTGGSSTTTASGTTTTKASSTSTSSTSTGTGVAAHWGQCGGQGWTGPTTCASGTTCTVVNPYYSQCL"}}, "test": "Saccharification of pretreated bagasse by CBHI variants in a cocktail with CBHII and EG", "format": "biochemical", "conditions": "Table 6; for % improvement over WT @ 48 hr: 5% w/v pretreated bagasse, 35° C., pH5.2, CBHI 4 mg/g cellulose", "data": [{"molecule": "B1", "values": [{"measurement": "% improvement over WT @ 48 hr", "value": 7.9, "unit": "%"}]}, {"molecule": "B2", "values": [{"measurement": "% improvement over WT @ 48 hr", "value": 18.1, "unit": "%"}]}, {"molecule": "B3", "values": [{"measurement": "% improvement over WT @ 72 hr", "setting": "Point Mutant Recombinants, time point 72 hours", "value": 5.4, "unit": "%"}]}]}
